In PubChem BioAssay (NCATS):
The inconclusive results got no clear call from the source; some entries with a clear call stand among them for comparison. For some of these results: Potencies of inconclusive entries are left out as doubtful fits. Activity calls are given as the source filed them. Unless noted, calls follow the shape of the dose curve; as a rule, active = well fitted curve in the direction sought with a large enough effect; inconclusive = small, poorly fitted or top-dose-only effect, or another doubt; inactive = no such curve, though single readings can be large; an effect the other way counts as inactive or inconclusive.

What was measured:
[1] = qHTS of pediatric cancer cell lines to identify multiple opportunities for drug repurposing: Primary screen for Saos-2 cells (AID 1347097); details: Saos-2 viability, CellTiter-Glo ATP luminescence, 48 h; activity change, negative = cytotoxic: at 46 µM (top of the series); also: nearly all actives have a fitted effect of over 40% in size
Method in brief: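 Plated cells (500-1,000 per well, growth media) were allowed to settle for 5 hours, treated with compound dilutions for 48 hours, then lysed with CellTiter-Glo for 15 min at room temperature before luminescence reading.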

[2] = qHTS of pediatric cancer cell lines to identify multiple opportunities for drug repurposing: Primary screen for OHS-50 cells (AID 1347103); details: OHS-50 osteosarcoma viability, CellTiter-Glo luminescence, 48 h; activity change, negative = cytotoxic: at 57.3 µM (top of the series); also: nearly all actives have a fitted effect of over 40% in size
Method in brief: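 Cells (500-1,000/well) rested 5 h, then received compounds for 48 h; metabolically active cells were measured by CellTiter-Glo luminescence. Final concentrations spanned up to 46 µM (MIPE, 11-point) or 0.59 nM-46 µM (NPC, 8-point) in primary screens, 11-point in follow-ups.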

[3] = biological target: N-terminal Xaa-Pro-Lys N-methyltransferase 1 (Homo sapiens) (UniProt Q9BV86); assay: qHTS Assay for Inhibitors of N-terminal methyltransferase 1 (NTMT1): LOPAC validation of the NTMT1 SAHH-coupled ThioGlo3 Assay (AID 1347143);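 also: SAH from peptide methylation measured as thiol fluorescence via SAHH coupling and ThioGlo3; potency is read from the fitted curve at half-maximal effect; nearly all actives have a fitted effect of over 70% in size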
Chain of UniProt Q9BV86 (Q9BV86 whole entry, looked up): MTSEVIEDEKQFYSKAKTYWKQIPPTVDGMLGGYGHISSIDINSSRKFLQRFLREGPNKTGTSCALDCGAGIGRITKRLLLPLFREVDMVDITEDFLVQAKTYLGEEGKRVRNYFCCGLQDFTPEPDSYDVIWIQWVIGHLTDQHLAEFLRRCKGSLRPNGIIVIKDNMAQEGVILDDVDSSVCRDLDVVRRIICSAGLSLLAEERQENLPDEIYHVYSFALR
Method in brief: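 Inhibition of NTMT1 methylation of peptide SPKRIA is followed by converting SAH with SAHH and labelling the released thiol with ThioGlo3. Plates are read at 340/450nm before and 30 min after reagent addition, both at room temperature.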

[4] = test system: Zika virus NS2B-NS3 protease; assay: Primary screen GU AMC qHTS for Zika virus inhibitors (AID 1347154); also: potency is read from the fitted curve at half-maximal effect; nearly all actives have a fitted effect of over 70% in size
Method in brief: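 Fluorogenic AMC-substrate cleavage by noncovalent NS2B-NS3 protease complex (25 nM, pH 8.0 Tris buffer with Tween 20) followed for 15 minutes at room temperature (~20% conversion). Percent inhibition from ex340/em450 signal change, fitted by 4-parameter Hill equation.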

[5] = biological target: Lysine-specific demethylase 5B (Homo sapiens) (UniProt Q9UGL1); assay: Optimization screen for KDM5B Histone Demethylases FDH coupled qHTS against the LOPAC library (AID 1347166); details: KDM5B demethylation, FDH-coupled NADH fluorescence (FDH is formaldehyde dehydrogenase); series mostly up to 57.5 µM
Chain of UniProt Q9UGL1 (Q9UGL1 whole entry, looked up): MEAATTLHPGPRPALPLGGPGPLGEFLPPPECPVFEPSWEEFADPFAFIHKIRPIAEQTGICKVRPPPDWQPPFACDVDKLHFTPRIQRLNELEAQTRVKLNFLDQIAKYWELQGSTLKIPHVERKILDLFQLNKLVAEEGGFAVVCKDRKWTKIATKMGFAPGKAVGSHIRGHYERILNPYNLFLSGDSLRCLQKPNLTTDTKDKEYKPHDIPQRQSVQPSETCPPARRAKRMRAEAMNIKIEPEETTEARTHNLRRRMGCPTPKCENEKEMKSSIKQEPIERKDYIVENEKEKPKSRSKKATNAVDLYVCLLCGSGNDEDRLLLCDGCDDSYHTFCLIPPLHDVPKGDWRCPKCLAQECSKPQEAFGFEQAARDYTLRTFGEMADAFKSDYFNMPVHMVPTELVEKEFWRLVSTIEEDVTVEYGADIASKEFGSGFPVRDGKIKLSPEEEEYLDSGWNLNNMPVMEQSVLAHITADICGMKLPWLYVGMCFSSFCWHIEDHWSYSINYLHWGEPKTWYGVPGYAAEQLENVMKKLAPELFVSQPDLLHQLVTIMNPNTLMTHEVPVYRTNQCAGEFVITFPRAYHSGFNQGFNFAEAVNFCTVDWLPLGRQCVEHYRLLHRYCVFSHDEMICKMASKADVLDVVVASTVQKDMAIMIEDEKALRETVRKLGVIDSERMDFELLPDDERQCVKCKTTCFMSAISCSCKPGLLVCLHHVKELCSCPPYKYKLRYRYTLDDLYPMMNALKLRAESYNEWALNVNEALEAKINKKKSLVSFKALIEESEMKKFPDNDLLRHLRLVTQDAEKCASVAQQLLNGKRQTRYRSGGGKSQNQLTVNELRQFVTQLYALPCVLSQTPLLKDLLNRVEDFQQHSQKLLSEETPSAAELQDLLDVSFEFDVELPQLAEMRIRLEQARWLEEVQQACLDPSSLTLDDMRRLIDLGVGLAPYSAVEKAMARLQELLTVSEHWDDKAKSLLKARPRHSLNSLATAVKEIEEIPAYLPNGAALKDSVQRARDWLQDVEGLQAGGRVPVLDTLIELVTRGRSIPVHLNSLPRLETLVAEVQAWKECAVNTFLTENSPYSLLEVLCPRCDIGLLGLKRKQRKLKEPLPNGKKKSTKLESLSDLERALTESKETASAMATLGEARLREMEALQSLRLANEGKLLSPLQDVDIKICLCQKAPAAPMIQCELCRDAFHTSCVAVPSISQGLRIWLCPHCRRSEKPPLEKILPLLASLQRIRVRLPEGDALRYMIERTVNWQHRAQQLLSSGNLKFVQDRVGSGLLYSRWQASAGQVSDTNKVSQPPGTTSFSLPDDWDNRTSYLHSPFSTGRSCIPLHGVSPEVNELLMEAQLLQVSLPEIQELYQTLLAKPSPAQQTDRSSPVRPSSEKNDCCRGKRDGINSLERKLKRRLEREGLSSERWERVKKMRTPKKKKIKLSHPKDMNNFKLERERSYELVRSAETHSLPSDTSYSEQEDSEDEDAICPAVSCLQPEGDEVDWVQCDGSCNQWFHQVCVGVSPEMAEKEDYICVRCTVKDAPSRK
Method in brief: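 KDM5BDeltaAP (200nM final) preincubated 10 min with compound, then 12.5uM H3K4Me3, 25uM a-ketoglutarate, ascorbate, Fe(II), NAD+ and FDH added; 50mM HEPES pH 7.5, 0.01% Tween-20. NADH fluorescence (340/450 nm) change over 30 min, room temperature.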

[6] = Primary qHTS for small molecule stabilizers of the endoplasmic reticulum resident proteome: Secreted ER Calcium Modulated Protein (SERCaMP) assay (AID 1508630); details: SH-SY5Y GLuc-SERCaMP (Gaussia luciferase released on ER calcium loss) secretion, thapsigargin, luminescence; series mostly up to 38.4 µM; also: potency is read from the fitted curve at half-maximal effect
Method in brief: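 GLuc-SERCaMP-expressing SH-SY5Y cells, pretreated 16 h with compound, are challenged with thapsigargin to empty ER calcium stores; after 4 h, coelenterazine is added directly to the medium and luminescence is imaged.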

[7] = biological target: Cytochrome P450 2D6 (Homo sapiens) (UniProt P10635); assay: Cytochrome P450 family 2 subfamily D member 6 (CYP2D6) small molecule antagonists: luciferase biochemical (cell-free) qHTS assay (AID 1645840; active = well fitted curve in the direction sought with a large enough effect in the repeat runs; inconclusive = weak or mixed curves; inactive = no such curve, though single readings can be large; an effect the other way counts as inactive or inconclusive; also: potency is read from the fitted curve at half-maximal effect; nearly all actives have a fitted effect of over 55% in size)
Chain of UniProt P10635 (P10635 whole entry, looked up): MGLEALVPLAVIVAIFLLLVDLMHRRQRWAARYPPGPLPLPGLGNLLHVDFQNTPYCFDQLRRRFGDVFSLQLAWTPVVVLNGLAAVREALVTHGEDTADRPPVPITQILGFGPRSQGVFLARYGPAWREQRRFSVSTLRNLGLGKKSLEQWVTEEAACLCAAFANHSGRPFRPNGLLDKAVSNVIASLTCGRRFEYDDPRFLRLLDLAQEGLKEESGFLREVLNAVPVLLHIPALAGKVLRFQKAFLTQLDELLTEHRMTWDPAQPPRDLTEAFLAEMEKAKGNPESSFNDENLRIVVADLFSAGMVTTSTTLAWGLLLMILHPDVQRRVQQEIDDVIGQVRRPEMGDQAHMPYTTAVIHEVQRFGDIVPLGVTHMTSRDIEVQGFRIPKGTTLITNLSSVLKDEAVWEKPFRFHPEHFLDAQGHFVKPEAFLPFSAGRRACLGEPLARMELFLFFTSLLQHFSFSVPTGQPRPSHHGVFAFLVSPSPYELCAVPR
Method in brief: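 P450-Glo luminescent screen: recombinant CYP2D6 enzyme–proluciferin substrate mix preincubated with compound 10 min at room temperature, then NADPH regeneration added for 1 h at room temperature. Detection reagent added for 20 min; luciferin light read as relative luminescence units.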

[8] = biological target: Cytochrome P450 2C9 (Homo sapiens) (UniProt P11712); assay: Cytochrome P450 family 2 subfamily C member 9 (CYP2C9) small molecule antagonists: luciferase biochemical (cell-free) qHTS assay (AID 1645842; active = well fitted curve in the direction sought with a large enough effect in the repeat runs; inconclusive = weak or mixed curves; inactive = no such curve, though single readings can be large; an effect the other way counts as inactive or inconclusive; also: nearly all actives have a fitted effect of over 55% in size)
Chain of UniProt P11712 (P11712 whole entry, looked up): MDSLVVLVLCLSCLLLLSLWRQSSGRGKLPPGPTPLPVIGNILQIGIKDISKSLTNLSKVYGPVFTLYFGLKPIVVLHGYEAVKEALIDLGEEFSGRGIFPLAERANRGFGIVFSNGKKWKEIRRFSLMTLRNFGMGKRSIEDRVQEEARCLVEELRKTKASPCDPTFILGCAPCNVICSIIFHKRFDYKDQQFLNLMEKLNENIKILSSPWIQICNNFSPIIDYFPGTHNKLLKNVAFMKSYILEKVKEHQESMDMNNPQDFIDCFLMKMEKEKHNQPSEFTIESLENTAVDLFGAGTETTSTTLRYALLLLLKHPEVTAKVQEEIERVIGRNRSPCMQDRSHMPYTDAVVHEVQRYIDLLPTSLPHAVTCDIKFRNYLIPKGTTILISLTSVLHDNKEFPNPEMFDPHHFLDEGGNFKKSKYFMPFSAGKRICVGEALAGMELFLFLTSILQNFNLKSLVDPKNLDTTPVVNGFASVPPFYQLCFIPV
Method in brief: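 Luminescence, after 20 min with luciferin detection reagent, reflected CYP2C9 turnover during a 1 h NADPH-driven reaction at 37C. Enzyme-substrate mix contained 0.4% bovine serum albumin and was preincubated with compound 10 min at room temperature.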

[9] = Primary qHTS for inhibitors of nuclear receptor binding SET domain protein 2 (NSD2) in an isogenic RCH-ACV NSD2 p.E1099K mutant (9B) (AID 1645876); details: activity change, negative = viability loss: at 44.9 µM (top of the series) unless noted; also: nearly all actives have a fitted effect of over 70% in size
[10] = test system: CASKI; assay: Primary qHTS to identify gynecologic anti-cancer compounds using libraries of approved drugs and bioactive compounds (AID 1345084); details: Gynecologic cancer cell panel viability, ATPlite luminescence, 48 h; series mostly up to 57.5 µM; also: nearly all actives have a fitted effect of over 55% in size; also: potency is read from the fitted curve at half-maximal effect
Method in brief: (§1)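 Cells, 1,000 per well, plated 16 h, then exposed 48 h at 37 C to compounds. Viability by ATPlite luminescence after 15 min at room temperature.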

[11] = test system: HeLa; assay: as above; details: Gynecologic cancer cell panel viability, ATPlite luminescence, 48 h; series mostly up to 57.5 µM
Method in brief: as §1

[12] = test system: OV90; assay: as above; details: Gynecologic cancer cell panel viability, ATPlite luminescence, 48 h; series mostly up to 57.5 µM
Method in brief: as §1

[13] = test system: SKOV3; assay: as above; details: Gynecologic cancer cell panel viability, ATPlite luminescence, 48 h; series mostly up to 57.5 µM
Method in brief: as §1

[14] = Drug repurposing screens with cells derived from glioblastoma tumor samples (AID 1345199); details: GBM patient neurospheres viability, ATP luminescence, 48 h; Potency: tumour line A unless noted; series mostly up to 46 µM; also: potency is read from the fitted curve at half-maximal effect; nearly all actives have a fitted effect of over 40% in size
Method in brief: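 Four patient lines of CD133+ GBM neurospheres were screened at several concentrations; hits were retested in those lines plus three slower-growing GBM lines, using 48-hour treatment and ATP-based viability.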

[15] = test system: 3D7; assay: qHTS profiling for inhibitors of Plasmodium falciparum proliferation (AID 504749); also: nearly all actives have a fitted effect of over 60% in size; details: P. falciparum in erythrocytes, SYBR Green DNA, 72 h; series mostly up to 28.7 µM
Method in brief: (§2)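 Infected RBCs, 0.3% parasitemia/2.5% Hct final; cpd 72 h, 37 C, 5% CO2; lysis buffer with saponin/triton/SYBR Green I, o/n RT dark; FI 485/535; norm. to artemisinin (0.29 uM) and DMSO.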

[16] = test system: CP185; assay: as above; details: P. falciparum in erythrocytes, SYBR Green DNA, 72 h; series mostly up to 28.7 µM
Method in brief: as §2

[17] = test system: CP250; assay: as above; details: P. falciparum in erythrocytes, SYBR Green DNA, 72 h; series mostly up to 28.7 µM
Method in brief: as §2

[18] = test system: CP269; assay: as above; details: P. falciparum in erythrocytes, SYBR Green DNA, 72 h; series mostly up to 28.7 µM
Method in brief: as §2

[19] = test system: N140; assay: as above; details: P. falciparum in erythrocytes, SYBR Green DNA, 72 h; series mostly up to 28.7 µM
Method in brief: as §2
Tags tell the direction and shape of the fitted curve.

SMILES: CSc1ccc(C(=O)c2[nH]c(=O)[nH]c2C)cc1
- Potency [1]: inactive
- Potency [2]: inactive
- Potency [3]: inconclusive [inhibitor, partial curve]
- Potency [4]: inconclusive [inhibitor, full curve, poor fit]
- Potency [5]: inactive
- Potency [6]: inconclusive [inhibitor, partial curve]
- Potency [7]: inconclusive [inhibitor, single point]
- Potency [8]: inactive
- Potency [9]: inactive
- Potency [10]: inactive
- Potency [11]: active: 2 µM
- Potency [12]: inactive
- Potency [13]: inactive
- Potency [14]: inconclusive [inhibitor, partial curve]
- Potency [15]: inactive
- Potency [16]: inactive
- Potency [17]: inactive
- Potency [18]: inactive
- Potency [19]: inactive
